Experimental data as given in a collection of fitness landscapes (doi:10.1016/j.celrep.2020.107928).
Over roughly 81,000 sequences, “one-hybrid fitness for binding NBS DNA” has its median near -0.1; the highest 2% begin near 0.36. The list shows a part of the results.

B1: Caulobacter ParB omega fusion; a variant is named by its letters at X, in order, B8GW30 (parent)
chain: MESVVVGEPGMSEGRRGLGRGLSALLGEVDAAPAQAPGEQLGGSREAPIEILQRNPDQPRRTFREEDLEDLSNSIREKGVLQPILVRPSPDTAGEYQIVAGERAWRAAQRAGLKTVPIMVRELDDLAVLEIGIIENVQRADLNVLEEALSYKVLMEKFERTQENIAQTIGKSXSHVANXMRLLXLPDEVQSYLVSGELTAXHARAIAAAADPVALAKQIIEGGLSVRETEALARKAPNLSAGKSKGGRPPRVKDTDTQALESDLSSVLGLDVSIDHRGSTGTLTITYATLEQLDDLCNRLTRGI

Variants of: B1
Experiment: one-hybrid fitness for binding NBS DNA (the Noc-binding site; scaled: cognate 1, non-cognate 0); higher = stronger binding
Conditions: with NBS DNA site
Outline: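 Values were rescaled so that cognate is 1 and non-cognate is 0. Each is a fitness, the log change in a variant's read ratio to wild type from Illumina reads of plasmids before and after selection, with three replicate libraries pooled and variants under 10 reads dropped. Selection of the Caulobacter ParB libraries, four specificity codons randomised, used E. coli USO with a HIS3 reporter, site 19 bp from the promoter, on M9-minus-histidine with 0.1 mM IPTG and 5 mM 3-AT for 48 hours at 37°C.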

Variant | one-hybrid fitness for binding NBS DNA
QPPL | ≤ 0.2
TPKA | ≤ 0.2
QQCL | ≤ 0.2
VPIG | ≤ 0.2
YSDY | ≤ 0.2
GDRI | ≤ 0.2
YHHV | ≤ 0.2
LWRV | ≤ 0.2
MALL | ≤ 0.2
FGHV | ≤ 0.2
GDIR | ≤ 0.2
PLTG | ≤ 0.2
ENPR | ≤ 0.2
KVFK | ≤ 0.2
VNLW | ≤ 0.2
QRDN | ≤ 0.2
WMNR | ≤ 0.2
EWTC | ≤ 0.2
AKMG | ≤ 0.2
GHPW | ≤ 0.2
YMRE | ≤ 0.2
YTSE | ≤ 0.2
NYGF | ≤ 0.2
LGND | ≤ 0.2

Variant | one-hybrid fitness for binding NBS DNA
WTGC | ≤ 0.2
SPFF | ≤ 0.2
PHEI | ≤ 0.2
LGIY | ≤ 0.2
GYLL | ≤ 0.2
THDV | ≤ 0.2
HMMD | ≤ 0.2
CSLS | ≤ 0.2
RFKG | ≤ 0.2
CWIY | ≤ 0.2
KLWR | ≤ 0.2
QAMT | 0.346
RKPG | ≤ 0.2
MMHF | ≤ 0.2
LDHS | ≤ 0.2
QQCI | ≤ 0.2
QSLQ | ≤ 0.2
QYID | ≤ 0.2
DTVD | ≤ 0.2
LDYM | ≤ 0.2
GHRT | ≤ 0.2
LLTM | ≤ 0.2
RQDY | ≤ 0.2
HWRR | ≤ 0.2

Variant | one-hybrid fitness for binding NBS DNA
SGGT | ≤ 0.2
GPER | ≤ 0.2
GGKR | ≤ 0.2
EFTE | ≤ 0.2
VDSC | ≤ 0.2
LQRY | ≤ 0.2
PTAQ | ≤ 0.2
KSPP | ≤ 0.2
AYVV | ≤ 0.2
TCDY | ≤ 0.2
QTCP | ≤ 0.2
VYTR | ≤ 0.2
KHNY | ≤ 0.2
RRHL | ≤ 0.2
SKYF | ≤ 0.2
DDML | ≤ 0.2
GCNM | ≤ 0.2
VGGT | ≤ 0.2
IAKM | ≤ 0.2
YRGN | ≤ 0.2
TGLC | ≤ 0.2
LTPD | ≤ 0.2
HLPY | ≤ 0.2
DYHT | ≤ 0.2

Variant | one-hybrid fitness for binding NBS DNA
HAYM | ≤ 0.2
ASLM | ≤ 0.2
CFND | ≤ 0.2
PTSP | ≤ 0.2
QMVC | ≤ 0.2
YDRW | ≤ 0.2
AEPG | ≤ 0.2
QDMT | ≤ 0.2
YKCT | ≤ 0.2
QFRR | 0.441
STHT | ≤ 0.2
NEQT | ≤ 0.2
IRLL | ≤ 0.2
KQNR | 0.242
AKHL | ≤ 0.2
QGWG | ≤ 0.2
SERY | ≤ 0.2
HATK | ≤ 0.2
KKQA | ≤ 0.2
KTPW | ≤ 0.2
PRTA | ≤ 0.2
WSFG | ≤ 0.2
NVPC | ≤ 0.2
TNMR | ≤ 0.2

Variant | one-hybrid fitness for binding NBS DNA
YGRH | ≤ 0.2
THLP | ≤ 0.2
VYEP | ≤ 0.2
IPGI | ≤ 0.2
QTRC | 0.548
TFKR | ≤ 0.2
PGKI | ≤ 0.2
RVFT | 0.271
RYFV | ≤ 0.2
TWYM | ≤ 0.2
MPNK | ≤ 0.2
LDLD | ≤ 0.2
IMNW | ≤ 0.2
GDER | ≤ 0.2
SFQM | ≤ 0.2
RQPP | ≤ 0.2
FRKH | ≤ 0.2
HPCF | ≤ 0.2
EGKW | ≤ 0.2
RQWN | ≤ 0.2
RMFI | ≤ 0.2
QMPC | ≤ 0.2
PCIL | ≤ 0.2
CVYT | ≤ 0.2

Variant | one-hybrid fitness for binding NBS DNA
DGSG | ≤ 0.2
CHSN | ≤ 0.2
GPTF | ≤ 0.2
EAAW | ≤ 0.2
PSNY | ≤ 0.2
TNIT | ≤ 0.2
TLFI | ≤ 0.2
CGCT | ≤ 0.2
KRQD | ≤ 0.2
NKRC | ≤ 0.2
CNVF | ≤ 0.2
NIAE | ≤ 0.2
IDYT | ≤ 0.2
ITDC | ≤ 0.2
WANG | ≤ 0.2
LMFC | ≤ 0.2
DAWG | ≤ 0.2
VRLL | ≤ 0.2
VGTS | ≤ 0.2
RRMP | ≤ 0.2
KMLN | ≤ 0.2
AQFA | ≤ 0.2
TGCS | ≤ 0.2
DASV | ≤ 0.2

Variant | one-hybrid fitness for binding NBS DNA
IDQY | ≤ 0.2
IVTG | ≤ 0.2
LEWW | ≤ 0.2
PHEL | ≤ 0.2
YVGA | ≤ 0.2
CRHN | ≤ 0.2
SQLM | ≤ 0.2
YKDH | 0.692
LCAK | ≤ 0.2
HGWF | ≤ 0.2
DAHN | ≤ 0.2
DHRK | ≤ 0.2
CPYC | ≤ 0.2
VASD | ≤ 0.2
RPEW | ≤ 0.2
EDIG | ≤ 0.2
NIMG | ≤ 0.2
FSVS | ≤ 0.2
YHPL | ≤ 0.2
YPYF | ≤ 0.2
RAWI | ≤ 0.2
LASE | ≤ 0.2
GPRS | ≤ 0.2
PPTL | ≤ 0.2

Variant | one-hybrid fitness for binding NBS DNA
SHKL | ≤ 0.2
KFKS | ≤ 0.2
PMYW | ≤ 0.2
WQYS | ≤ 0.2
EVIG | ≤ 0.2
EILV | ≤ 0.2
ERSY | ≤ 0.2
QVWG | ≤ 0.2
KLSR | ≤ 0.2
NQSI | ≤ 0.2
VLKG | ≤ 0.2
HCIL | ≤ 0.2
WRSA | ≤ 0.2
PLGE | ≤ 0.2
KRNC | ≤ 0.2
RTSR | 0.576
LFPA | ≤ 0.2
PMHS | ≤ 0.2
ITER | ≤ 0.2
RCDC | ≤ 0.2
MIKR | ≤ 0.2
QNSH | ≤ 0.2
QTDH | 0.335
ITCG | ≤ 0.2

Variant | one-hybrid fitness for binding NBS DNA
RIYP | ≤ 0.2
YMNL | ≤ 0.2
CAGE | ≤ 0.2
GCPV | ≤ 0.2
TVPV | ≤ 0.2
LPCK | ≤ 0.2
DCMG | ≤ 0.2
YYNR | ≤ 0.2
VQIL | ≤ 0.2
QNIA | ≤ 0.2
TSEE | ≤ 0.2
SSEL | ≤ 0.2
ESMR | ≤ 0.2
HWWR | ≤ 0.2
GALT | ≤ 0.2
PDTL | ≤ 0.2
DIQQ | ≤ 0.2
PLMM | ≤ 0.2
GMVS | ≤ 0.2
QGLM | ≤ 0.2
MYNR | ≤ 0.2
HTQY | ≤ 0.2
WSWR | ≤ 0.2
GQEK | ≤ 0.2

Variant | one-hybrid fitness for binding NBS DNA
NNDS | ≤ 0.2
QHIS | 0.258
LQPA | ≤ 0.2
APLR | ≤ 0.2
TCES | ≤ 0.2
LHLT | ≤ 0.2
MMMY | ≤ 0.2
VPNL | ≤ 0.2
IKQR | ≤ 0.2
NRTQ | ≤ 0.2
VAFT | ≤ 0.2
VDMV | ≤ 0.2
APAL | ≤ 0.2
HVNE | ≤ 0.2
NTMS | ≤ 0.2
QQTY | ≤ 0.2
AACS | ≤ 0.2
DNNT | ≤ 0.2
YHNT | ≤ 0.2
RHAF | ≤ 0.2
STYR | ≤ 0.2
GTKS | ≤ 0.2
CNGF | ≤ 0.2
SDHM | ≤ 0.2

Variant | one-hybrid fitness for binding NBS DNA
GWIS | ≤ 0.2
TEYL | ≤ 0.2
GLRS | ≤ 0.2
PATW | ≤ 0.2
MDTR | ≤ 0.2
GHRC | ≤ 0.2
YGCA | ≤ 0.2
RNLE | ≤ 0.2
QRKY | 0.699
DKES | ≤ 0.2
ITMD | ≤ 0.2
RSLG | ≤ 0.2
QRCC | 0.389
PISI | ≤ 0.2
AASA | ≤ 0.2
IILP | ≤ 0.2
EVTN | ≤ 0.2
RKEE | ≤ 0.2
DCGG | ≤ 0.2
RSST | 0.426
MTYV | ≤ 0.2
LMRT | ≤ 0.2
RNES | ≤ 0.2
AAFL | ≤ 0.2

Variant | one-hybrid fitness for binding NBS DNA
VVPR | ≤ 0.2
NTVP | ≤ 0.2
GPLL | ≤ 0.2
PWIG | ≤ 0.2
LKWG | ≤ 0.2
QESS | ≤ 0.2
LVRK | ≤ 0.2
DSVW | ≤ 0.2
MQTS | ≤ 0.2
YANT | ≤ 0.2
IILS | ≤ 0.2
NPRT | ≤ 0.2
AVLR | ≤ 0.2
PGYI | ≤ 0.2
DITM | ≤ 0.2
SLTH | ≤ 0.2
WMVG | ≤ 0.2
YHKR | ≤ 0.2
SEEG | ≤ 0.2
CTTI | ≤ 0.2
PAPN | ≤ 0.2
ARCH | ≤ 0.2
GPKV | ≤ 0.2
VWAN | ≤ 0.2

Variant | one-hybrid fitness for binding NBS DNA
MLGL | ≤ 0.2
VPLE | ≤ 0.2
NFDM | ≤ 0.2
IYIT | ≤ 0.2
PRQG | ≤ 0.2
ASWG | ≤ 0.2
IHTP | ≤ 0.2
THQK | 0.252
LGYC | ≤ 0.2
EYKT | ≤ 0.2
MSEE | ≤ 0.2
PAPM | ≤ 0.2
RHNT | 0.508
TPYR | ≤ 0.2
RINF | ≤ 0.2
TMPS | ≤ 0.2
LYRG | ≤ 0.2
VDML | ≤ 0.2
